# Data taken from paper PMC12136788.
# The list shows a part of the results.
# B1: chr5:1253166:1253831:-|three_prime_utr|ENSG00000164362|control|control|control (ssRNA)
# RNA: GGGAGUUCUACAGUCCGACGAUCCUCGGCUCCACCCCAGGGCCAGCUUUUCCUCACCAGGAGCCCGGCUUCCACUCCCCACAUAGGAAUAGUCCAUCCCCAGAUUCGCCAUUGUUCACCCCUCGCCCUGCCCUCCUUUGCCUUCAACAGAGGAUUGAGCAUCA
# B2: chr1:220062840:220062943:-|CDS|ENSG00000162813|unk|total|mutant (ssRNA)
# RNA: GGGAGUUCUACAGUCCGACGAUCGUUUACACAGGCAGGACCAGAUGCUGUGUUGGGGAGGACAAUCUGGGGAGUUUCCGGUUCCGGCGCCUUUGGGUUUCAGCUGAAAGAAGUCCCUGCUGGGAAACACAUUAUCACAACUACCAACAGAGGAUUGAGCAUCA
# B3: chr11:123627604:123627705:+|3pUTR|ENSG00000023171|unk|total|mutant (ssRNA)
# RNA: GGGAGUUCUACAGUCCGACGAUCAUUUGGAUCUAUAACUGUACUUUGCCUGGCGCUGUGCGCAAGGUCAGAAAACUUACUGCCCGUACCCCGAAACACACAAGGCUGCCCAGCCAAAUCUUAAUGUAAAGCCGCCCGAGCCAUCAACAGAGGAUUGAGCAUCA
# B4: chr5:172042892:172042993:-|3pUTR|ENSG00000072786|msi1|total|mutant (ssRNA)
# RNA: GGGAGUUCUACAGUCCGACGAUCGAUUCUCCCGCUUCAACCUUGAGCCGCUGGGACGACAGAUACAUGCUACUGCACCCAGCCCGGUUAAGGUUCUGUAUACUCUGUCUUUCUAAAGCAAUUCCCUGGAAAUUUUCUCAACAUCAACAGAGGAUUGAGCAUCA
# B5: chr7:152122106:152122213:+|3pUTR|ENSG00000178234|unk|total|mutant (ssRNA)
# RNA: GGGAGUUCUACAGUCCGACGAUCAGUGGUUUUUAUCUGAUCAGGAACUUGUCAUGAUUUCCUUUCUCCGACUUCACCGGAGACCGUGCUUUAAAAAAAAAAAAAACUUCUAUUAUUUGUUCCGUAUGUUGUAAGCCGAUCAUUCAACAGAGGAUUGAGCAUCA
# B6: chr1:13148904:13149928:-|three_prime_utr|ENSG00000280267|control|control|control (ssRNA)
# RNA: GGGAGUUCUACAGUCCGACGAUCCCUGGACCUGAGUGGCAUCAGACUGACCAAUUACAGUCUUGUGCCUCUCCAAAUUCUCCUAGAAAAAGUUGCAGCCACCCUUGAGUACCUGGAUUUAGAUGACUGUGGCAUCAUAGACUCCAACAGAGGAUUGAGCAUCA
# B7: chr1:186359875:186359976:-|CDS|ENSG00000047410|msi1_unk|total|mutant (ssRNA)
# RNA: GGGAGUUCUACAGUCCGACGAUCGGAAACUCAGGAUCAGUUGCUUUUGGAGAAACCCGAGAACAAAAGAAUUAAUAAGUACCCCGAUGAAACCGUGAAAGAAGUGGAAGCCAAAGCACCAAUUUUGAAACGCCAGCGUGAGGACAACAGAGGAUUGAGCAUCA
# B8: chr5:147393259:147393361:-|3pUTR|ENSG00000113657|msi1_unk|FALSE|overlapping (ssRNA)
# RNA: GGGAGUUCUACAGUCCGACGAUCAGACCCAACCAUUUCUUCCACCUGCUUGAUUGUGCCAGUGUUUGCUCAGGCCUCUUUCUUAGUGUUGCUUUCAAAUCCUUCUCUUUCCUGGGUUGGGAAGGCCAGGCAGGGACAGAGCAACAACAGAGGAUUGAGCAUCA
# B9: ENSG00000124422:stop:overlap|stop_codon|ENSG00000124422|stop_codon|NA|stop_codon (ssRNA)
# RNA: GGGAGUUCUACAGUCCGACGAUCACGUCCUGGACAGCGAAGGGUACUUGCUGUUCUAUCACAAACAGUUCCUGGAAUACGAGUAGCCUUAUCUGCAGCUGGUCAGAAAAACAAAGGCAAUGCAUUGGCAAGCCUCACAAAGUGCAACAGAGGAUUGAGCAUCA
# B10: ENSG00000197122:stop:overlap|stop_codon|ENSG00000197122|stop_codon|NA|stop_codon (ssRNA)
# RNA: GGGAGUUCUACAGUCCGACGAUCCCUUCCUGGAGGACUACUUCACGUCCACCGAGCCCCAGUACCAGCCCGGGGAGAACCUCUAGGCACAGGCGGGCCCAGACCGGCUUCUCGGCUUGGAUCCUGGGCUGGGUGGCCCCUGUCCAACAGAGGAUUGAGCAUCA
# B11: chr1:43623430:43623515:+|3pUTR|ENSG00000142949|msi1_unk|total|mutant (ssRNA)
# RNA: GGGAGUUCUACAGUCCGACGAUCGGCGGGGAAGGGUGCACCGCUGUUUCCGCUGAGGGACGUGGUGCCGACGUCCCCAAACCCCGCCCGGCUAAGUCAAGAUCAACAUUCCAGGGUUGGUAAUGUUGGAUGAUGAAACAUUCACAACAGAGGAUUGAGCAUCA
# B12: chr12:104760787:104760888:+|3pUTR|ENSG00000171310|unk|FALSE|unique (ssRNA)
# RNA: GGGAGUUCUACAGUCCGACGAUCUUCUUUUCUAAUGGCAUUGAAACUUUAAAAAAAAUGGAUUCAACUGUUUUUGCAGAAUGUAGAAAGUAUUCUGUGUCCUUGGUUAAAGAAAUCCACUUGUGAAGUGUGCCUGGAAAAUGACAACAGAGGAUUGAGCAUCA
# B13: chr7:66152395:66152486:+|3pUTR|ENSG00000241258|msi1_unk|total|mutant (ssRNA)
# RNA: GGGAGUUCUACAGUCCGACGAUCCGUUGAGAGGAUUGUUUAUUUGAUUUUUAUCCUCAUCCCAGCAGGCCUGGCUUUGUGGUCCGUUGGGUACAUCACAAAAAUAAGUUAAAAAGAAAUAUUUGUGCCUUGGGGAGAAGAAACCAACAGAGGAUUGAGCAUCA
# B14: chr10:24620413:24620514:-|CDS|ENSG00000107863|msi1|FALSE|bound_elsewhere (ssRNA)
# RNA: GGGAGUUCUACAGUCCGACGAUCGUGCUAAUGAAGUAUUGUCCAAGAAGUGCAUCUCAAGGAGCACUGACGUCUCCAUCUGUUAGUUUUAGUAAUCAUAGAACUCGUUCAUGGGAUUAUAUUGAGGGACAGGAUGAAACCUUACAACAGAGGAUUGAGCAUCA
# B15: chr10:126014591:126014692:-|3pUTR|ENSG00000148848|msi1|FALSE|unique (ssRNA)
# RNA: GGGAGUUCUACAGUCCGACGAUCAAAGGUUUGUCUCCUGAAAUUUUUUAAGUUUGUUUUCCUGACACAUGUAAUCAGAUGUGUAGCAACCGAGGGAAACGAAGCCUAACAUUCUCCAUUGUGGAAAUACACACAGGAGGUUACCAACAGAGGAUUGAGCAUCA
# B16: ENSG00000112936:stop:overlap|stop_codon|ENSG00000112936|stop_codon|NA|stop_codon (ssRNA)
# RNA: GGGAGUUCUACAGUCCGACGAUCGAUGCAGAGGGCAGAGCAUCUCUGUCACCAGCAUAAGGCCUUGUGCUGCGGAAACCCAGUAGGCUCCUGGAGGCCCUGGUCAGCUUGCUUGGAAUCCAGCAGGCAGCUGGGGCUGAGUGACAACAGAGGAUUGAGCAUCA
# B17: chr16:11872726:11872856:-|3pUTR|ENSG00000103342|msi1_unk|FALSE|overlapping (ssRNA)
# RNA: GGGAGUUCUACAGUCCGACGAUCACAUAAUUGCCUACAAUAAUGAAAACCUACAGGAAUUUUUUUAUUUUUCAUUUUCCCCUUAGGCAUAUUUAGUAUUUUUCCCCCAGGCAGAUCAUUCUGAGUGUGCGAGUGUGUGUGCACCAACAGAGGAUUGAGCAUCA
# B18: chr7:6690371:6690472:-|3pUTR|ENSG00000164631|msi1|total|mutant (ssRNA)
# RNA: GGGAGUUCUACAGUCCGACGAUCUGAAAAAAAAAAAAGAAACCGAAGAUUCCUGCUGUGAAUAAACAUACUUCUUGUGUAAACCGAAACUGUAAAGUCAUCAGGACCGCCCGUUAAGUCGGUAACCUUAAACUCAUGUAAGCACAACAGAGGAUUGAGCAUCA
# B19: chr6:89631235:89631336:+|3pUTR|ENSG00000135299|msi1|total|mutant (ssRNA)
# RNA: GGGAGUUCUACAGUCCGACGAUCUGAAGUUUGAAAGCUCAGAUUAAGCAAGCCAUGCCAAGAAACUGGACGAUGUGUAAGCCCCGACUCUAAAAUUCAAGAUGUGUGAAAUAAUAUAAGUCAAAAGCAAGAAAAACGUAAUCCCAACAGAGGAUUGAGCAUCA
# B20: chr5:133955728:133955829:-|3pUTR|ENSG00000113583|msi1|total|mutant (ssRNA)
# RNA: GGGAGUUCUACAGUCCGACGAUCUCAAUAUGUAAAUAUGUGAUUUGAACCAUGGUUGACUUACAAGUGUCACUACAGCUUUUCCGAAAACACCGCCCUAAUAUAUGUUAAGCAGGACCCGGGUGAGCCAGUGGGCUUGCGCUUCAACAGAGGAUUGAGCAUCA
# B21: chr15:52547342:52547511:-|3pUTR|ENSG00000128989|msi1|FALSE|unique (ssRNA)
# RNA: GGGAGUUCUACAGUCCGACGAUCAACAUAUUUAAUAUUAUGCCCUUGGAUCUGUUACUGCAUCACUAGCACUUGUGAUGCAAUAGAACACUUCGCCUGUACUGAAAGGGCCAAGAGUAAAUGCCUUGUUUUGUUUUUUUGUUUCAACAGAGGAUUGAGCAUCA
# B22: chr16:30351896:30351997:-|3pUTR|ENSG00000169217|unk|total|mutant (ssRNA)
# RNA: GGGAGUUCUACAGUCCGACGAUCCUGGCACCCUCCACCUCCACGCCCCACCAGCAUUGCCUUACGCCUCCCUUGCCCCACGUCCGAUGGUUUCUUCCGGUUUUGCACUCUGGCUGCCCCUUGGAGUCUCCUGGGGAGCUGUAACAACAGAGGAUUGAGCAUCA
# Target: MSI1 full-length (mouse, UniProt Q61474 1-362)
# Chain of UniProt Q61474 (Q61474 whole entry): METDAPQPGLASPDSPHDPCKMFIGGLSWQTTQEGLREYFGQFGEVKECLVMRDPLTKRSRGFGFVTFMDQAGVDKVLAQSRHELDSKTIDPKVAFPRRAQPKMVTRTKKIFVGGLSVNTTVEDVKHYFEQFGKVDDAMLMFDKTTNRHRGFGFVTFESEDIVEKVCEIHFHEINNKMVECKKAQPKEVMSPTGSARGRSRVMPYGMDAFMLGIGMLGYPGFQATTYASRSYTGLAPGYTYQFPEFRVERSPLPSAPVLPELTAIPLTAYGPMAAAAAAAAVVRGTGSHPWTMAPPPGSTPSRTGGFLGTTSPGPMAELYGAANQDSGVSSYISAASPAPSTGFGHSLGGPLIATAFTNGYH
# Test: nsRBNS (natural sequence RNA bind-n-seq); RBNS binding buffer (assumed for nsRBNS): 25 mM Tris pH 7.5, 150 mM KCl, 3 mM MgCl2, 0.01% Triton X-100, 500 ug/ml BSA, 20 U/ml SUPERase-In, 4 C; UNK is unkempt and MSI1 is Musashi-1; names of the RNAs are library labels; protein concentration not given here; high values mean tight binding
row,Binder,binding signal
1,B1,1.37 enrichment R
2,B2,0.433 enrichment R
3,B3,0.355 enrichment R
4,B4,0.391 enrichment R
5,B5,1.74 enrichment R
6,B6,0.437 enrichment R
7,B7,0.601 enrichment R
8,B8,0.5 enrichment R
9,B9,0.511 enrichment R
10,B10,0.473 enrichment R
11,B11,0.211 enrichment R
12,B12,0.433 enrichment R
13,B13,0.516 enrichment R
14,B14,4.85 enrichment R
15,B15,0.329 enrichment R
16,B16,0.257 enrichment R
17,B17,6.02 enrichment R
18,B18,0.334 enrichment R
19,B19,0.468 enrichment R
20,B20,0.406 enrichment R
21,B21,0.539 enrichment R
22,B22,0.606 enrichment R
